Test results reported in the supplement of paper PMC10681739.
± gives the standard deviation of the averaged measurements. Over roughly 4,100 sequences, “arbitrary fluorescence units” has its median near 780; the highest 2% begin near 22,000. The list shows a part of the results.

Target: T1, ETS1 (UniProt P14921)
T1 sequence: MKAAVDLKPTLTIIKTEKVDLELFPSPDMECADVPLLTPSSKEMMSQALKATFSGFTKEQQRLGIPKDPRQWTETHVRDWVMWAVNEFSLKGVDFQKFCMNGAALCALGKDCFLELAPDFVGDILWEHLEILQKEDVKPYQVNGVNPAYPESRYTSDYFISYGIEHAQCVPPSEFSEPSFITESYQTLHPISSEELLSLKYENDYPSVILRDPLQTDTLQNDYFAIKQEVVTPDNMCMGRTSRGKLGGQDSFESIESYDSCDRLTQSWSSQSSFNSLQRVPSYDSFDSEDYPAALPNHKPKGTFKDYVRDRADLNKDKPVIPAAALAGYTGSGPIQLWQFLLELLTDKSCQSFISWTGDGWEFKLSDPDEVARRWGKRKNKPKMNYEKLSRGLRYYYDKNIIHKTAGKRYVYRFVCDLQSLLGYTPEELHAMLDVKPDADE
Experiment: ETS1 binding intensity (PBM fluorescence), ETS1 alone (arbitrary fluorescence units); higher = stronger binding
Details: ETS1 concentration 1 nM; RUNX1 concentration 0 nM
Procedure, shortened: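 Double-stranded Agilent 4 × 180k arrays held 36-bp genomic probes whose RUNX1 partner site was mutated, and these were incubated with 1 nM full-length recombinant human ETS1 in the absence of RUNX1 under standard PBM protocols. Bound protein was labelled with anti-ETS1 antibody (Cell Signaling Technology 14069) plus an Alexa488-conjugated secondary and read on a GenePix 4400A, with four spots printed per sequence. Binding level is reported as raw spot fluorescence intensity summarised over replicate spots.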

Row | Sequence | ETS1 binding intensity
1 | AAGGCACCAGCCACTTCGGAGGAAACGGGGGGTGGT | 514
2 | CTGCACAGCTGTCGTTGTGTAACTTCCCCCAGATGC | 356
3 | TGTTGTAGTTCCCGAGCTTCGTCCACGCCGGATCTG | 342
4 | CGAAGAGGAAGCCCCTGTATCACCCCAAAAGAAGCC | 612
5 | CTACCTCTACCTCCGCCGCCGCCTACATCCCGTAAA | 612
6 | GGCAGGCACCTCAGAAGCCGGGCTTCCGTCTGACTG | 497
7 | CCCCGCCGCTGTTCCCCCTGACCGGCTTTCCGCTGG | 394
8 | GAGGACTTCCGGGTGCGTGTGATATCTACGGGCCCG | 18900
9 | CGAGCCGCCTTCCTCCCCGGCCCTCAGCCCAGCACT | 475
10 | TGGTGCCAAACATCCGCTAGCCAGAGAAAAACCGAC | 6500
11 | GGGCAATGTGATTTGCCAGACGTTAGCGTCCGGGAG | 321
12 | GTCCTCTTCCTGTCCCCCAGGTGGGCATGTGATTTG | 6800
13 | CAGCCGGCACCGTGGACAGCCGCCGCTTCCGGTTTC | 5160
14 | GCCCAGGCTGCGCGATGGGGTCATTTCCTGCCGCCT | 1820
15 | GGCCAACCAAAAAGCACTGGCAGGAAGTGGGGCAAC | 2530
16 | TCTACCCTTCCTGCTCTGGCCTGGGCTGGGGTAGCT | 2140
17 | CTGCTTGGGGTTTTGGTCTGCAGGAAGCTGGGCTGC | 528
18 | AAAGAACTTCCTGAGGTGCTTGGGGTTAGGCTATGG | 4310
19 | GCGGCTCTGGGAGGGAGCAGAAGGAAGGGAAGGAAG | 406
20 | ACCCCGCCCCCCCCAAACAACATCCCTTGGGTGTAA | 402
21 | GCACCGTCCCAGCATCCGGACACCAGAGCGGCCCTT | 3900
22 | GACTGAGATTTCCTGCCAGCAACTACATGGCTTGTC | 7080
23 | CAGCTAGCCGGAAGAAGCTGCAGCGACAGCGTCCTG | 2620
24 | GTGCCTGACCCCAAACCAACATTTCCTGTCTCAATT | 4950
25 | TTTACGGGATGTAGGCGGCGGCGGAGGTAGAGGTAG | 681
26 | TGCTCCACTCGGAAGTGGTGCCGAAGCTCTTCGATG | 905
27 | GCTCAGCGGCCTCGCGCCATCGTTTCCGGTGGGCAG | 8000

Row | Sequence | ETS1 binding intensity
28 | TGGGGCTAGGCTTCCGGGGCTCTGCAGTCCTCGGCC | 3440
29 | CTGGTAAGGAAGCTGGCCAAAATCCACTGAAACCAA | 451
30 | CTCTTTGTAGCTCCCGCGAGAGTCCGCCTTCCGCCG | 437
31 | ACCCCCACCCCCGCCTTCTTGTGCGAGGATGTCATG | 447
32 | CATCTGCGTCCGGCACCCAGGAGGCTCGTTGTCCGC | 1410
33 | CTCTTCCGCTCAGTCATCCTCAGAGGTGCTAAGACT | 10100
34 | GCTGAGGGCGCCGGCAATCGAGTGGCTTCCTGGCCA | 475
35 | GTGATAAGAACGACAGGCCACTTCCCAAAGATCAAA | 531
36 | CCCAGGGCTGAGGGCTCCTGAGCCAGGAAATGGGTC | 382
37 | TAAGCCCGCTGTAGATTGTTATGTCCGGAATCCGCT | 368 ± 6
38 | CATTTCCTGATCTGACCTCTGGGGAGGCCAGAGAGC | 11200
39 | CCAGCCCAGGAAACAAGGAACCCCAAAGCTACAGGA | 652
40 | CTGCTGAGTGGCATCCGTGGTGTGCGTACGGCACCG | 560
41 | GGAGAAATAGAGCGCGCTTTGTGCGGAAGCTGTCAG | 367
42 | TGAGTCAGTAGCCCCAAGTAGAACAGGAAGTGGAAA | 2530
43 | GGTGTTACACCCCAGCCTTCCAGGAAGGGGCAGGGG | 489
44 | AAGAGGAAATAAATACCAGAGTGAACTCACAAACCT | 594
45 | ATTGCTTCCGACGCTACTCCTGCCGGGTCACGACAG | 1800
46 | TCTTTGCTGGTGGCTACCTTTACAGGAAATCTCTTA | 482
47 | AATTAAATTGTCGTAGATAGTAAAAGGAAGTAGTTA | 591
48 | AGCTTTCTCTGGTGTAAACAGGAAGCGAGACCATGT | 2480
49 | TCCCAGTTTATGGGAAGGGTTGAGGGAAGTGAGGGG | 531
50 | CGCCGCTCAACTTCCGGCAACCAGAGCTCTCTCTGA | 18300
51 | GCGGGGCCGTACGGTAGGCGGAAAAGATGCGCAATT | 411
52 | AGGAGAGGATGTTGCTTGAAGGTGTTGTCTCCTCCA | 1010
53 | GCGGCCGGGATGTGGAGGGTGAGCGCTGTGAGCAGC | 526
54 | AGCTTCCGAGTCTGTTGTGGAGTGGGAACAGCGACT | 2510

Row | Sequence | ETS1 binding intensity
55 | CTTCACTATGCATCCTGTACTGCAACGACACCAAAC | 3580
56 | TTTGGGGTAACCTACAGAATTATCAGGATGTCTCAG | 431
57 | AAGTGATCGCGAGGTGCGCCGGCCCGCGAGGAAACG | 310
58 | GGGGGGAAGTGGCGCCACCAGGTGGAGGTTGCTTTG | 986
59 | CTTCCTTCCCTTCCTTCTGCTCCCTCCCAGAGCCGC | 852
60 | TGACGGATGCACGGGCGCAGCGGCGGCCTGCAGGGG | 422
61 | GGCCGGCTTCCGGGGCGGGTGGAAAGGAGCCCCAAG | 7570
62 | CGCCCCGGCAGCCGCCCACGTCCGGGGGCCAGGCCT | 802
63 | CTCCGCCTTTCACTTCCTAGTAACCCCCCTCCCTTG | 975
64 | AGACTTCACCGAAGCTTGCTGCCTCAGAGGATGTCA | 360
65 | CTCCGCTGTCCCCTGCAGGCACCGAGGGCGGAACCA | 347
66 | GTGGCTGCTGTGCTCAGGCTGTTCTTTCCTGTTGCT | 373
67 | TTGAAAAGGAAGTTCATTTGTACTGAGGTGGATTTA | 1170
68 | TATCAGGAAAAGCGTCTCAGTCCTCCTTGTGAGCGG | 371
69 | GAGAAAGCTGCAGACACTGCTTACAGCTTTTCCTGT | 444
70 | CCGCGTCCTCAGAGGTCCGGCCGGAAGTCACCTGAA | 8340 ± 1500
71 | CTGACTGTGATAAACCGATCTGGCTTCAGGAAGTCC | 360
72 | TTGAGGGTGTGTCTCTTTCGGTCTTACATCCTAACA | 478
73 | AGGGCATTTCCTTTGGGGCTGGTGCTCACGGACAAC | 6490
74 | GAGCTGCTCCGGAAGGGTGGTGTGTGCTCAACCTTG | 678
75 | TAGGCCGGAAAGCACCACCGTCCTCCCGTAGGCCGC | 860
76 | GTGGAAGAAATCGCTTCGGCAGCAGAGGAAACAGCA | 402
77 | GCGTCGGCTACAAGGCGTTTTACGTTCCGCCCCCTG | 300
78 | CGGCCTGCGCGGGGAGTTTAGGGAAGTGGCAGGGTG | 321
79 | CTGCTGGGCCCCTTCCTGTCAGCGGCTGCTCTTTAC | 2950
80 | AGCTTAATGGGGTTGGAGAACATCCTGTCTTATTGA | 3940
